# Results as given in publication PMC4336329 (PLoS ONE, 2015).
# Out of some 310,000 compounds screened, about 2,200 (0.71%) showed an effect of 50% or more. Effects have a minus sign here. Some of the results follow.
# Target: human ether-à-go-go-related gene (hERG) potassium channel (human, UniProt Q12809)
# Experiment: primary screen, population patch clamp on CHO cells stably expressing hERG
# Chain of human ether-à-go-go-related gene (hERG) potassium channel (Q12809 whole entry, looked up): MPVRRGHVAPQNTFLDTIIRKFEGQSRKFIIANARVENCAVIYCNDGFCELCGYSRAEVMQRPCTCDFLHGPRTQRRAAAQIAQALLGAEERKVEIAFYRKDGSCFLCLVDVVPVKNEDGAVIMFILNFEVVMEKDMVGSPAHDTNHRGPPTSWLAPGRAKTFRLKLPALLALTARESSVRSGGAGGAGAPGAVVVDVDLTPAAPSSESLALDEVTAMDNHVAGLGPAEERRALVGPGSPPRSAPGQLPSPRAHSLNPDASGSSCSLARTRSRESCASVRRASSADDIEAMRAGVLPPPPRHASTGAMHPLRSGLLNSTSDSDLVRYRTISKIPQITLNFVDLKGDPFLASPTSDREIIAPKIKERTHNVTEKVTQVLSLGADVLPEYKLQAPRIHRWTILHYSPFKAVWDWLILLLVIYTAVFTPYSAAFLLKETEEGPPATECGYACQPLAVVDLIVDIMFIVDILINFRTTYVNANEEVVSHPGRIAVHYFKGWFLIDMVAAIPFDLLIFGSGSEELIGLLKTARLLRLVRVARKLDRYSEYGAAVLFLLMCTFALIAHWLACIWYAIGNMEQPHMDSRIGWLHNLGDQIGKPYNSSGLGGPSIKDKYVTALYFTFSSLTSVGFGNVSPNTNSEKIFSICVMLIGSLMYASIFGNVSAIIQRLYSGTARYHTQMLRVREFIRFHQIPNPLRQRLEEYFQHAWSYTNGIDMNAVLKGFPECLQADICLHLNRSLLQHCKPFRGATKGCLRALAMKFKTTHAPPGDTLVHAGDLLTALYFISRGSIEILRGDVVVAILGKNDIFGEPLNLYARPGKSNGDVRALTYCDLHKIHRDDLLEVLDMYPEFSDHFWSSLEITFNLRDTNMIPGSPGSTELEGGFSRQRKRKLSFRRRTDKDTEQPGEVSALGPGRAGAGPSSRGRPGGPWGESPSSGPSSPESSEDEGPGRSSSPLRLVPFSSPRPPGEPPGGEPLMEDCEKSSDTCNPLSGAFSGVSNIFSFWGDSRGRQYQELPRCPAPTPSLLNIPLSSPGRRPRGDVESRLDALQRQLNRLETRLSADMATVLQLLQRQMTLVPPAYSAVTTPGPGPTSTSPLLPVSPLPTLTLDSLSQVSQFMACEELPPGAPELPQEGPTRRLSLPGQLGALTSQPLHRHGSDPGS
row,SMILES,"hERG current change (%, negative = inhibition) at 1uM [%]"
1,CC(SC1=NCCN1S(=O)(=O)c1ccccc1)c1ccccc1 (stereo not shown),4.21
2,Cc1cnc(C(=O)OCC(=O)Nc2cc(-c3cc(C)c(C)cc3C)nn2-c2ccccc2)cn1,10.6
3,CC(=O)NCCn1c(SCC(=O)c2ccccc2)nc2ccccc2c1=O,-6
4,CCCCn1c(N)c(N(CCOC)C(=O)CSCc2ccc(Cl)c(Cl)c2)c(=O)[nH]c1=O,13
5,CC1(C)CC(NC(=O)c2cc(Cl)ccc2Cl)CC(C)(C)N1,10
6,CC(C)C(NC(=O)c1ccccc1F)C(=O)NCc1ccc(F)cc1 (stereo not shown),6.68
7,O=C(NN=C1C2CC3CC1CC(Cl)(C3)C2)c1ccccn1,9.36
8,COc1ccc(OCC(=O)NC(=O)c2ccccc2)c([N+](=O)[O-])c1,-6.13
9,CC1CCCCC1N1CCN(C(=O)c2cccc(F)c2)CC1.O=C(O)C(=O)O (stereo not shown),-3.65
10,Cc1c(NC(=O)COC(=O)c2ccc(O)cc2)c(=O)n(-c2ccccc2)n1C,16.4
11,Cc1[nH]n(C(N)=S)c(=O)c1C(c1ccccc1)C(C#N)C#N (stereo not shown),17.3
12,COc1cc(C(=O)N2CCCc3ccccc32)c([N+](=O)[O-])cc1OC,13.2
13,O=c1[nH]c(=O)n(C2CCCCC2)c(O)c1C=NCCCn1ccnc1,11.6
14,CC(C)c1ccc(-c2c(NCCc3ccccc3)c(=O)c2=O)cc1,18.3
15,Cc1oc2cc3oc(=O)cc(C)c3cc2c1C,10
16,COc1ccc2c(=O)c(-c3nc(C)cs3)coc2c1,10.4
17,O=C(O)c1ccccc1-c1ccccc1C(=O)NCCCO,17.1
18,CCO[C@@H]1OC(C(=O)NCc2ccccc2)=C[C@H](c2ccc(Br)cc2)[C@H]1CCCO,13.8
19,Cc1cccc(C(=O)OCC(=O)NCC2CCCO2)c1O (stereo not shown),8.36
20,COc1cccc(OC)c1C(=O)N1CCN(S(=O)(=O)c2ccc(C)cc2)CC1,8.29
21,O=C1CC[C@@H](CN(Cc2ccccc2)Cc2cn[nH]c2-c2cc3ccccc3o2)N1,13.3
22,COC(=O)C1=C(C)NC(=O)NC1c1cn(-c2ccccc2)nc1-c1cccs1 (stereo not shown),8.39
23,COc1ccc(CCn2c(-c3ccncc3)n[nH]c2=S)cc1OC,11.5

row,SMILES,"hERG current change (%, negative = inhibition) at 1uM [%]"
1,NC(=O)NCC1CC1,8.76
2,Nc1cc(N)nc(SCC(=O)Nc2cc(S(=O)(=O)N3CCOCC3)ccc2Cl)n1,13.2
3,CCSc1nc(-c2ccccc2)nc2c1CCCC2,5.72
4,CCc1c(O)nc(SCc2ccccc2)n(C(C)CC)c1=O (stereo not shown),13.2
5,COC(=O)COc1ccc2c(c1)O/C(=C\c1cccc([N+](=O)[O-])c1)C2=O,1.61
6,Cc1ccc(NC(=O)Nc2cccs2)c(Cl)c1,7.98
7,COc1ccc(N2C(=O)N3[C@H](c4ccc(Cl)cc4)[C@@H]4C(=O)N(C5CCCCC5)C(=O)[C@@H]4[C@]3(Cc3ccc(Cl)cc3)C2=O)cc1,8.22
8,COc1ccc(OC)c(-c2csc(N(C)C(=O)Cc3ccccc3)n2)c1,8.65
9,COc1ccc(S(=O)(=O)NCc2ccccn2)cc1Br,15.2
10,COc1ccc(CCNC(=O)c2ccc3c(c2)N(Cc2ccc(F)cc2)CCS3)cc1OC,9.51
11,COc1ccc(-n2c(=O)cc(N3CC(C)OC(C)C3)[nH]c2=O)cc1 (stereo not shown),11.6
12,CCOC(=O)c1cnc(SCC(=O)Nc2ccc3c(c2)OCCO3)nc1N,7.81
13,COC(=O)C(CCSC)NC(=O)c1cc2c(n(-c3ccccc3)c1=O)CC(C)(C)CC2=O (stereo not shown),2.43
14,CN(Cc1cccc(F)c1)C(=O)c1cc(S(=O)(=O)N2CCOCC2)ccc1N1CCCC1,5.83
15,Cc1ccnc(NC(=O)C2CCCN(S(=O)(=O)c3ccc4[nH]c(=O)ccc4c3)C2)c1 (stereo not shown),2
16,COc1ccccc1CN(C)C(=O)c1ccccc1Sc1ccccc1C#N,-13.8
17,N#Cc1ccccc1N1CCN(C(=O)c2ccc(NC(=O)c3ccc(Br)o3)cc2)CC1,12.5
18,CCN(CCO)C(=O)c1ccc2nc(Cc3cccc(Cl)c3)oc2c1,7.69
19,CNc1nc(C(=O)O)nc(N2CCOCC2)n1,10.3
20,Cc1sc2ncn(CC(=O)N(C)C3CCCCC3)c(=O)c2c1C,0.429
21,Cc1ccc(N(CC(=O)NCc2ccc(F)cc2)S(=O)(=O)c2c(C)nn(C)c2C)cc1,15.5
22,Fc1ccccc1CSc1ncn[nH]1,-8.65
23,CCCOCCOC(=O)C1=C(C)NC(=O)NC1c1cc(Cl)c(O)c(OC)c1 (stereo not shown),-4.45

row,SMILES,"hERG current change (%, negative = inhibition) at 1uM [%]"
1,COc1cc(/C=N/NC(=O)CC#N)ccc1Oc1nc(Cl)ncc1F,15.3
2,COc1cc(-c2nc3n(n2)C(c2ccncc2)C(C(N)=O)=C(C)N3)cc(OC)c1OC (stereo not shown),14.9
3,Cc1cccc(NC(=S)NC2CCCC2)c1,5.73
4,O=C(NC1CCCC1)c1cc(=O)[nH]c2ccccc12,17.7
5,CSc1cccc(NC(=O)C2CCCN2S(=O)(=O)c2ccc3c(c2)CCC(=O)N3)c1 (stereo not shown),-10
6,COc1cc(CNc2ccc3[nH]c(=O)[nH]c3c2)ccc1OCc1ccccc1F,10.7
7,CCN1CCN(S(=O)(=O)c2c(C)cc(C)cc2C)CC1,9.22
8,CCOC(=O)c1nnsc1NC(C)=O,12.7
9,CC(C)n1c(=S)[nH]c2cc(C(F)(F)F)ccc21,14.8
10,COc1ccc(OC)c(CN2CCN(C(=O)CN3C(=O)NC4(CCCC4)C3=O)CC2)c1,7.46
11,COc1ccc(C(=O)NC(=S)N2CCN(c3ccc([N+](=O)[O-])cc3)CC2)cc1,-24.6
12,CCCNC(=O)N1CCC(C(=O)c2ccc(F)cc2)CC1,12
13,Cc1cccc(C)c1NC(=O)CSc1nnc(Cc2ccccc2)o1,2.76
14,O=C(Cc1ccccc1[N+](=O)[O-])N1CCOCC1,13.4
15,CC(=O)c1c(C)nc(-c2ccc(Cl)cc2Cl)n1O,2.59
16,O=S(=O)(Nc1ccc(N2CCOCC2)cc1)c1cccs1,4.22
17,COc1ccc(CCNC(=O)CSCc2n[nH]c(=O)[nH]2)cc1OC,1.07
18,COc1ccc(NC(=O)N2CCC(c3nc4ccccc4[nH]3)CC2)cc1,13
19,CCc1ccc(N2CC(C(=O)N3CCN(c4ccccn4)CC3)CC2=O)cc1 (stereo not shown),3.65
20,CC(=O)Nc1ccc2c(CSc3nnc(N)s3)cc(=O)oc2c1,10.7
21,COc1ccccc1C(CNC(=O)c1cc(C)nc2ccccc12)N(C)C (stereo not shown),12.4
22,Cc1cccnc1NCc1ccc(O)c2ncccc12,23.2
23,CCCOc1ccc(/C(O)=C2/C(=O)C(=O)N(CCCn3ccnc3)C2c2cccnc2)cc1 (stereo not shown),12.6

row,SMILES,"hERG current change (%, negative = inhibition) at 1uM [%]"
1,O=C1CCCCC/C1=N/Nc1ccc(OCc2ccccc2)cc1,17.1
2,Cc1ccc2oc(=O)c(/C=C(\O)CC(C)C)nc2c1,11.4
3,O=C(O)c1cc(Cl)c2c(c1)OCO2,11.1
4,O=C(Cc1c(Cl)cccc1Cl)NC1CC1,10.2
5,CCC(NC(C)C)C(O)c1ccc(O)c(O)c1.CS(=O)(=O)O (stereo not shown),12.8
6,O=C(CSc1nc2c(c(C(F)(F)F)n1)CCc1ccccc1-2)NCc1ccccc1,9.76
7,Cc1cc(C)cc(C(=O)NC(CC(N)=O)c2ccc(N3CCC(N4CCCCC4)CC3)c([N+](=O)[O-])c2)c1 (stereo not shown),12.3
8,O=C(CSc1ccc(-c2cccnc2)nn1)Nc1ccccc1C(F)(F)F,13.6
9,COCCn1c(N)c(N(Cc2ccccc2)C(=O)Cc2c(Cl)cccc2Cl)c(=O)[nH]c1=O,11.8
10,Brc1ccc(CSc2nnc3ccccn23)cc1,2.56
11,O=C(Oc1cccc(/C=N/Nc2nc(Nc3ccccc3)nc(N3CCOCC3)n2)c1)c1ccco1,8.93
12,Clc1ccccc1CN1CCN(c2ncccn2)CC1,10.9
13,Cc1cccc(NC(=O)c2cc([N+](=O)[O-])ccc2Cl)c1O,8.28
14,CCOC(=O)Cc1[nH]nc2c1C(C1C=CCCC1)C(C#N)=C(N)O2 (stereo not shown),0.387
15,COc1cccc(/C=C/C(=O)Oc2ccc(C(=O)c3ccc(F)cc3)cc2)c1,15.2
16,COc1nc(Cc2ccc(Cl)cc2)nc2ccccc12,1.6
17,Cc1cccc(OCCn2cnc(Cl)c2Cl)c1,0.945
18,Cc1ccccc1C(=O)N/N=C/c1ccccn1,1.37
19,Cc1ccc(NC(=S)NC2CCCC2)c(C)c1,8.96
20,O=C(Nc1cccc2ccccc12)c1ccccc1Cl,9.52
21,Cc1cccc(OC2CCN(Cc3nc(CC4CC4)no3)CC2)c1,7.08
22,O=C1NCCCc2c1oc1cc(Br)c(O)c(Br)c21,-6.17
